# Experimental data: PubChem BioAssay AID651820 (National Center for Advancing Translational Sciences (NCATS), 2012)
# The campaign covered roughly 340,000 compounds. About 12,000 (3.5%) were called active. This list was built around the results that the source calls inconclusive (neither active nor inactive); the mix of calls is not that of the screen. Calls come from the whole dose curve; as a rule, active = well fitted inhibition curve with a large enough effect; inconclusive = small, poorly fitted or top-dose-only effect, or another doubt; inactive = no such curve, though single readings can be large or run the other way. No potency is given beside an inconclusive call; the fits are too rough.
# Test: qHTS Assay for Inhibitors of Hepatitis C Virus (HCV)
# Details: Huh7.5.1 HCVcc-Cre (HCVcc is cell-culture hepatitis C virus) infection, luciferase reporter, 44 h; activity change, negative = inhibition: at 41.8 µM (top of the series) unless noted
# Method in brief: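 Antiviral activity was scored by luciferase reporter output from cells infected with HCVcc-Cre (~0.5 moi) in presence of compound, 44 h infection period, cells seeded 1,000/well 4 h prior.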
# % is set by controls: 0 for no effect and ±100 for the full control effect; potency is the fitted concentration of half-maximal effect; tags give direction and shape of the fitted curve.
Structure (SMILES),"activity change, negative = inhibition",Potency
Cc1ccc[n+](CC(=O)c2cc3ccccc3oc2=O)c1,inactive: 10.2%,
COc1ccccc1C(=O)CC(=O)C(=O)Nc1cccc([N+](=O)[O-])c1C,,"inconclusive [inhibitor, single point]"
O=S(=O)(Nc1ccc2nc(C(F)(F)F)[nH]c2c1)c1ccccc1,,"inconclusive [inhibitor, single point]"
COc1cc(C(=O)NCc2ccncc2)cc(Br)c1OCc1ccccc1,,active: 10 µM
N#CCCN(C(=O)COC(=O)c1ccc(S(=O)(=O)N2CCCCCC2)cc1)c1ccccc1,inactive: -2.62%,
Cn1c(=O)c2c(nc(CN3CCN(C(=O)c4ccco4)CC3)n2Cc2ccccc2F)n(C)c1=O,inactive: 8.96%,
CCOc1ccc(S(=O)(=O)N(C)CCO)cc1-c1nc2c(C(C)(C)C)nn(C)c2c(=O)[nH]1,,"inconclusive [inhibitor, single point]"
CN(Cc1cccnc1)Cc1cn[nH]c1-c1ccc(-c2ccccc2)cc1,,"inconclusive [inhibitor, single point]"
CC1=CC(C)CC(C)OC(=O)CC(c2ccc(O)cc2)NC(=O)C(Cc2c(Br)[nH]c3ccccc23)N(C)C(=O)C(C)NC(=O)C(C)C1 (stereo not drawn),,"inconclusive [inhibitor, full curve]"
Cc1sc2ncnc(NC3CCN(Cc4ccccc4)CC3)c2c1C,,active: 1 µM
CCOc1ccc(C(=O)Nc2nnc(C3=COCCO3)o2)cc1,,"inconclusive [inhibitor, single point]"
c1ccc(-c2ccccc2OCCCN2CCOCC2)cc1,inactive: 1.53%,
Cc1nn(-c2ccccc2)c(N2CCCC2)c1/C=N/Nc1ccc(S(N)(=O)=O)cc1[N+](=O)[O-],,"inconclusive [inhibitor, single point]"
CCCCOC(=O)c1ccc(NC(=S)NC(=O)c2c(Br)c(C)nn2C)cc1,,"inconclusive [inhibitor, full curve, poor fit]"
O=C(N/N=C/c1c(O)ccc2ccccc12)c1[nH]ncc1Br,,"inconclusive [inhibitor, full curve]"
Cc1ccccc1CS(=O)(=O)CCC(=O)NCCCN1CCN(c2ccccc2F)CC1,,"inconclusive [inhibitor, full curve]"
CCn1c(=O)c(C(=O)CN(C)CC(=O)Nc2ccccc2Br)c(N)n(Cc2ccccc2)c1=O,,"inconclusive [inhibitor, single point]"
Cc1ccc(C)c(NC(=O)CS(=O)(=O)c2cccc3nsnc23)c1,,"inconclusive [inhibitor, single point]"
C/C=C(/C)C(=O)OC1c2c(ccc3ccc(=O)oc23)OC(C)(C)C1OC(=O)/C(C)=C\C (stereo not drawn),inactive: -49.1%,
COc1cc(C(=O)NCc2nnc(SCC(=O)NC3CCCC3)o2)cc(OC)c1OC,inactive: 3.94%,
C/C(=N/N=C1/NC(=O)CC(C(=O)Nc2ccccc2)S1)c1cccs1 (stereo not drawn),inactive: 4.74%,
COCCCNC(=O)c1ccccc1SC,inactive: 19.8%,

Structure (SMILES),"activity change, negative = inhibition",Potency
CCCCOC(=O)/C=C/c1ccc(OC(=O)OC)c(OC(=O)OC)c1,,"inconclusive [inhibitor, single point]"
CCOC(=O)c1c(C)nc2sc3c(=O)n(-c4ccc(C(C)=O)cc4)nnc3c2c1-c1ccc(Cl)cc1,,"inconclusive [inhibitor, single point]"
O=C(Nc1ccc(S(=O)(=O)N2CCOCC2)cc1)c1cc(S(=O)(=O)N2CCOCC2)ccc1Cl,,"inconclusive [inhibitor, partial curve]"
N#Cc1ccc(S(=O)(=O)NC2CCN(Cc3ccccc3)CC2)cc1,inactive: -8.32%,
COC(=O)c1cc2ccsc2n1CC(=O)Nc1cc(Cl)ccc1OC,,active: 3.16 µM
CC(=O)N1CCSc2ccc(S(=O)(=O)Nc3ccc(C)cc3)cc21,,"inconclusive [inhibitor, single point]"
Oc1c(N=NC(=S)Nc2ccccc2F)c2ccccc2n1Cc1cccc(Cl)c1,,"inconclusive [inhibitor, full curve]"
CN(CCCNC(=O)c1cc2c(Cl)nc3ccccc3c2s1)Cc1ccccc1,,active: 12.6 µM
CC(=O)Nc1ccc(S(=O)(=O)N2CCN(C(=O)c3ncoc3-c3ccccc3)CC2)cc1,,"inconclusive [inhibitor, single point]"
COc1cccc(C2OC(=O)c3ccccc3N2C(C)=O)c1OC(C)=O (stereo not drawn),inactive: -3.02%,
COc1cccc(-c2nc(-c3ccc4c(c3)-c3ccccc3S4(=O)=O)c(-c3ccccc3)[nH]2)c1OC,,"inconclusive [inhibitor, partial curve]"
O=C(Nc1ccccc1N1CCOCC1)c1cccc(S(=O)(=O)N2CCOCC2)c1,inactive: 12.1%,
Oc1[nH]c2ccccc2c1/C=N/c1nccs1,,"inconclusive [inhibitor, single point]"
CCOC(=O)c1c(NC(=O)Cn2nc(C(=O)O)c3ccccc3c2=O)sc(CC)c1C,,"inconclusive [inhibitor, partial curve]"
COc1ccc(NC(=O)C2=CC(c3ccc(C)cc3)=NS(=O)(=O)N2C)cc1OC,,"inconclusive [inhibitor, single point]"
Cc1ccccc1OCC(=O)Nc1cccc(S(=O)(=O)NC2=NCCC2)c1,,"inconclusive [inhibitor, full curve, poor fit]"
Cc1ncc(CO)c(/C=N/NC(=O)c2ccoc2C)c1O,,"inconclusive [inhibitor, full curve]"
O=C(Nc1ccc2c(c1)Cc1ccccc1-2)c1ccncc1,,"inconclusive [inhibitor, partial curve]"
CCOc1ccc(-n2c(=O)[nH]cc(C(=O)N3CCCc4ccccc43)c2=O)cc1,inactive: -4.83%,
O=C(CSc1nn(-c2ccc(F)cc2)c(=S)s1)N1CCN(C(=O)c2ccco2)CC1,,"inconclusive [inhibitor, single point]"
COc1ccc(CC(=O)NCc2csc(-c3cccs3)n2)cc1OC,,"inconclusive [inhibitor, partial curve]"
